This is an account of results in publication PMC5493753.

Protein sequences, listed by entry. Tags and fused reporters are not part of them.
UniProt Q8R4B8: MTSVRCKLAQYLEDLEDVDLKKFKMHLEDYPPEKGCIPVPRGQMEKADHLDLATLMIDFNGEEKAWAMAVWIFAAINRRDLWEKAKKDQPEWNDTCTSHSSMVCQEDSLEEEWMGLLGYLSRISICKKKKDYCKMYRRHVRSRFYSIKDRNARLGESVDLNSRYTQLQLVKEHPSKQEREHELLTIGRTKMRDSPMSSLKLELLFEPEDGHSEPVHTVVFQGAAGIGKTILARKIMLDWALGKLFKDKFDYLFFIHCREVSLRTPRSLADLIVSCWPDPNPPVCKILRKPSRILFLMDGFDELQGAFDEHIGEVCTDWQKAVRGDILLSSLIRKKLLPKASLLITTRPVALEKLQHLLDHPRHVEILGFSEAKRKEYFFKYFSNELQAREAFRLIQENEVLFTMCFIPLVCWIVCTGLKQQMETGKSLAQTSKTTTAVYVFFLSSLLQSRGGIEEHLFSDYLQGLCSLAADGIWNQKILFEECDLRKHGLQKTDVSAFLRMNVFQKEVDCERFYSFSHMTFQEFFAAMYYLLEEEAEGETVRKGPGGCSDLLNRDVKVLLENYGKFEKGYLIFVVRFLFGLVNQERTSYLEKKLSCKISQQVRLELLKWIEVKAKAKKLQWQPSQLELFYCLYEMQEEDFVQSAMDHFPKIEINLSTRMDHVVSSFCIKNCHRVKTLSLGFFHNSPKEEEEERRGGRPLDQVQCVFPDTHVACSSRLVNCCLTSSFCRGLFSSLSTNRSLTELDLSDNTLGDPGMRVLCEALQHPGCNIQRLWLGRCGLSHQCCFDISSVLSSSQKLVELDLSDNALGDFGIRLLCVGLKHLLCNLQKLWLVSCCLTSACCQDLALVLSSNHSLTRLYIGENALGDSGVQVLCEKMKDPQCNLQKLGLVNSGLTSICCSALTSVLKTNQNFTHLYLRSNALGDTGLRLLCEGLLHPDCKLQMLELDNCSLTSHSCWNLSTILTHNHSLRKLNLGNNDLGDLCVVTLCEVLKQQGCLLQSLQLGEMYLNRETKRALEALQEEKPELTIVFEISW
UniProt Q9ULZ3: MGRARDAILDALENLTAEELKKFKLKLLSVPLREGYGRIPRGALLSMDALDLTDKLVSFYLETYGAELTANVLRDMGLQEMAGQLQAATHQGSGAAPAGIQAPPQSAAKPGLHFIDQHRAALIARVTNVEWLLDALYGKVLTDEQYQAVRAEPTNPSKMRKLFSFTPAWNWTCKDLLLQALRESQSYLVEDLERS
UniProt Q3UP24: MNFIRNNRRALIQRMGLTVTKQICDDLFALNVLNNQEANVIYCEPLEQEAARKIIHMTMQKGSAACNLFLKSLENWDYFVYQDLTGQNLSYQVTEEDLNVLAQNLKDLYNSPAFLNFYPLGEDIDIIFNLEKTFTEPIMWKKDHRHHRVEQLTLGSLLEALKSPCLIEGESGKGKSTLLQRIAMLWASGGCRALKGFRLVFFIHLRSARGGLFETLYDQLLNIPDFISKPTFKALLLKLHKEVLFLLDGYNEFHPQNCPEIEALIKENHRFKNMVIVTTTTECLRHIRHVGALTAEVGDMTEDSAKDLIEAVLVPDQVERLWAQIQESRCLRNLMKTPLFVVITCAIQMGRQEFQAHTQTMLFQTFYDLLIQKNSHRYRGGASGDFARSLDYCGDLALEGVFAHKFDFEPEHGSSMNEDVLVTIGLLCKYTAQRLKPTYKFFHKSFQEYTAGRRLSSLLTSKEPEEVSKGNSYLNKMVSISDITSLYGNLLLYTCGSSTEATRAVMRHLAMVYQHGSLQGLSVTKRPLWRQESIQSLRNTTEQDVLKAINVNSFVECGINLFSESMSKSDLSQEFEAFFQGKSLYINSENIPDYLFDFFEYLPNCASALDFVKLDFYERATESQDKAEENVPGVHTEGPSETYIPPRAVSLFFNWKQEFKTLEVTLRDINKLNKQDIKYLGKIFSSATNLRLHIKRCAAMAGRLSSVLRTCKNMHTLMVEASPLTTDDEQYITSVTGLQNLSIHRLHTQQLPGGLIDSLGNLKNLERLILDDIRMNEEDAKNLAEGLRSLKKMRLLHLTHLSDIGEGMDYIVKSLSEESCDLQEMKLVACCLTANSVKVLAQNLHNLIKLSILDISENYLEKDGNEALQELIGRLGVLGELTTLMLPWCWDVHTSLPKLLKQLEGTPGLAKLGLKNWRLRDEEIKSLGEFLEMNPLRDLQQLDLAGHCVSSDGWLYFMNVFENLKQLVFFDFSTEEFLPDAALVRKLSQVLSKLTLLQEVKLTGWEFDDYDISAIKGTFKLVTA
UniProt Q8CIP4: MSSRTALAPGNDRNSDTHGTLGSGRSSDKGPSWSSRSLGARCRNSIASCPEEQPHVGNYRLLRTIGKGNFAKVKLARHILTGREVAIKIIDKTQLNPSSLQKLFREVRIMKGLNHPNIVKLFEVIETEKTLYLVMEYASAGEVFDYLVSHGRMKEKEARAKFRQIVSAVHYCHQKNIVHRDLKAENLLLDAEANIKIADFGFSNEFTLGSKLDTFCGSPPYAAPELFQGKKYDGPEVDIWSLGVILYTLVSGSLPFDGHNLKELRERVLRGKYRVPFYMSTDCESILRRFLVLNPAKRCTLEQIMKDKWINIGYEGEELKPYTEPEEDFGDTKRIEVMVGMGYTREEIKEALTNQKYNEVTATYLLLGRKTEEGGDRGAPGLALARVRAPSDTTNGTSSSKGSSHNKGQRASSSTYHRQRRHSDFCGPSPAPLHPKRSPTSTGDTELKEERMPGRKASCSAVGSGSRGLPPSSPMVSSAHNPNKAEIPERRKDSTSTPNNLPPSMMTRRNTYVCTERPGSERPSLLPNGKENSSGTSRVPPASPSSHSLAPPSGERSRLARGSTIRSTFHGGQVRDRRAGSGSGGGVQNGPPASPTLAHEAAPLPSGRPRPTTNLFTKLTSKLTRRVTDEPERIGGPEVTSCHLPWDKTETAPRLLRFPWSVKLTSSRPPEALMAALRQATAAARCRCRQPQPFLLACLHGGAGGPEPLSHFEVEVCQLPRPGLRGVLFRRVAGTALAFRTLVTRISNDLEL
UniProt Q96L34: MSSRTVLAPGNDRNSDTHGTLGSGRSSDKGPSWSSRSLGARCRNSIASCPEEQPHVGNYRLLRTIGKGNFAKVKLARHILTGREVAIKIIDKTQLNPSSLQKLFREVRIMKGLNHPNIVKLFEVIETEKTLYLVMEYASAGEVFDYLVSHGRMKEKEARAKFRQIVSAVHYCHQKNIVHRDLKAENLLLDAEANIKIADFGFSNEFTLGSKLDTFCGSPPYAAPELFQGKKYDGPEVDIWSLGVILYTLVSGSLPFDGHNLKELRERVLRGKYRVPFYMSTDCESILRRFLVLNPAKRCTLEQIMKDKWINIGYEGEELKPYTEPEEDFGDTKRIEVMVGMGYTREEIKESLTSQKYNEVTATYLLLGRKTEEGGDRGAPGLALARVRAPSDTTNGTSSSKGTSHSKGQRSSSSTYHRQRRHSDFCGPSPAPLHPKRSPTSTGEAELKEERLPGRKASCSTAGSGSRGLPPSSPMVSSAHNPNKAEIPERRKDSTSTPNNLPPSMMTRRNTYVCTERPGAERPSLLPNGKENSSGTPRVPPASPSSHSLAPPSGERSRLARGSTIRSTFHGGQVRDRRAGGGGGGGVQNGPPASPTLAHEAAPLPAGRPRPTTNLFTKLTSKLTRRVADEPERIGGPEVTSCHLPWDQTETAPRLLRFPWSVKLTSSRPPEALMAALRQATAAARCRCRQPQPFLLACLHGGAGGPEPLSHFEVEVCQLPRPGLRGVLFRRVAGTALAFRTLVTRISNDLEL

The target of test [1] is Nlrp3, endogenous in mouse bone marrow derived macrophages (mouse (endogenous in BMDM)) (UniProt Q8R4B8). Kind of test: proximity ligation; in situ PLA (Olink) on fixed mouse BMDM, endogenous proteins; nigericin 3 μM for 2 h or unstimulated; also with colchicine or nocodazole, CagA peptide, and Mark4 KO, Nlrp3 KO or Asc KO cells as controls.
Test [2] has as its target T1, Flag-tagged human AIM2 (human) (UniProt O14862).
T1 sequence: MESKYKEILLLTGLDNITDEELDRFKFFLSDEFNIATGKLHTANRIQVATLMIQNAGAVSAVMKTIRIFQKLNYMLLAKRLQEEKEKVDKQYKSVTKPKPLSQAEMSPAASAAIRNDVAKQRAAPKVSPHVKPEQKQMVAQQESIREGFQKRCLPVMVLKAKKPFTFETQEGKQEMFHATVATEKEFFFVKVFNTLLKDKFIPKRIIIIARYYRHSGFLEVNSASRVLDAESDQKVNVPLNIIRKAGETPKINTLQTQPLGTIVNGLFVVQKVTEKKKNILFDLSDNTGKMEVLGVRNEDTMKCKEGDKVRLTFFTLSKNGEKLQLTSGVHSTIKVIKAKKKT
Nature of the test: co-IP; HEK293T co-transfected with HA-tagged and Flag-tagged proteins; triton lysis buffer (10 mM Tris-HCl pH 8.0, 2.5 mM MgCl2, 5 mM EGTA, 0.5% Triton X-100); anti-Flag M2 magnetic beads or anti-HA matrix; western blot.

Test [3] addresses Flag-tagged human ASC (apoptosis-associated Speck-like protein with a caspase-recruitment domain) (human) (UniProt Q9ULZ3). The test is described as above.
The target in test [4] is T2, Flag-tagged human NLRP1 (human) (UniProt Q9C000).
T2 sequence: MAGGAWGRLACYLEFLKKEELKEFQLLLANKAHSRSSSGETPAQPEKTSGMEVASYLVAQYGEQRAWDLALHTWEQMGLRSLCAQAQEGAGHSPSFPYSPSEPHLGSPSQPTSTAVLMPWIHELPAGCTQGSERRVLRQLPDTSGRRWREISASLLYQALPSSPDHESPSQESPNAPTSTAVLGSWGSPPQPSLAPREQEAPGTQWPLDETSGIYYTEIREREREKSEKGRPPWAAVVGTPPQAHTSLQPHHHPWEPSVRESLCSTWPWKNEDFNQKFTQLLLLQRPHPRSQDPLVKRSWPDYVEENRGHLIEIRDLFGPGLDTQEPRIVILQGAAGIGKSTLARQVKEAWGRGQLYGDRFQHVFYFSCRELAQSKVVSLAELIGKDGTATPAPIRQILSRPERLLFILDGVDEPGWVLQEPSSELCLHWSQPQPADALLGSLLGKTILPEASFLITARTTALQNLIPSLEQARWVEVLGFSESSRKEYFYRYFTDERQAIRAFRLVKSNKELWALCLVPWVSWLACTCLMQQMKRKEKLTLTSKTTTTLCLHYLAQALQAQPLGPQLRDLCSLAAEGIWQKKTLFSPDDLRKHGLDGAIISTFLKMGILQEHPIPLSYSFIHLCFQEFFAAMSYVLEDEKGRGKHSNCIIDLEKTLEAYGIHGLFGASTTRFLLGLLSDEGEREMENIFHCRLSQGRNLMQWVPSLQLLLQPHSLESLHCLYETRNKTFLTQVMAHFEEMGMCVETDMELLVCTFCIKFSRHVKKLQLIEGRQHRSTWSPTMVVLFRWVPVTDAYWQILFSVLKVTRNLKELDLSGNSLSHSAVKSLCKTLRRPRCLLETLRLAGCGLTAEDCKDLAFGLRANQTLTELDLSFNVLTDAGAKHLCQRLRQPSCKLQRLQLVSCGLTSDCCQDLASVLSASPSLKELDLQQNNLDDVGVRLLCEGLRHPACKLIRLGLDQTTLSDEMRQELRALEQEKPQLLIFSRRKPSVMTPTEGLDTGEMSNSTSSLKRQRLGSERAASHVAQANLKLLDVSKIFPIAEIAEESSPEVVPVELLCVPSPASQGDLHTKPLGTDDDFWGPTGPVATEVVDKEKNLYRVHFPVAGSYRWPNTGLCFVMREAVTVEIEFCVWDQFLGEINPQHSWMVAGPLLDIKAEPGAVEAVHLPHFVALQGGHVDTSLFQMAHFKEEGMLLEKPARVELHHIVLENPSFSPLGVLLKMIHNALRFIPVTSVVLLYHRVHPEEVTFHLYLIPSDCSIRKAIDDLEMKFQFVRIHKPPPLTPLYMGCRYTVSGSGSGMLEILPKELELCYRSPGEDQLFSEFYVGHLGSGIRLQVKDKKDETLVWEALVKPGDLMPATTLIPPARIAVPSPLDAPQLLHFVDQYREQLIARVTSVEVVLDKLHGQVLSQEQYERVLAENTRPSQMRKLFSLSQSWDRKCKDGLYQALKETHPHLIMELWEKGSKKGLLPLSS
The test is described as above.

The target in test [5] is Flag-tagged mouse NLRC4 (mouse) (UniProt Q3UP24). The test is described as above.

These are yes or no findings as the source states them, for the method shown. Binding seen in cells or lysates may run through a third protein. Some binding calls cover weakened binding; strength is not graded here. For some assays here: Tags and fused reporters may be left off the sequences shown.

For “Mark4, endogenous in mouse bone marrow derived macrophages (from UniProt Q8CIP4 1-752)”, the binding entry in test [1] is “binds”.
Take “HA-tagged full-length human MARK4 (microtubule-affinity regulating kinase 4) (from UniProt Q96L34 1-752)”: the binding result in test [2], in test [3], in test [4] and in test [5] was “no binding” throughout.
